In the supplement of paper PMC7826260:
The list shows a part of the results. Viral Rep nickase domains cut single-stranded DNA in vitro at 3 µM enzyme and 37 °C for 1 h; the strands have 90 letters, of which the middle is given. Values are log2 of uncut reads against the no-enzyme pool; more negative means more cut, near 0 not cut, and no call is made. The scaling is to total reads, so uncut sequences can rise above 0 when many others are cut.

Assays:
Test in all cases: uncleaved DNA left, log2 of reads against the no-enzyme library (log2 ratio); higher = less cleavage (more negative = more Rep cleavage of the k-mer); sequences stand for … in CTCGTCCG…ACCGGAGA
[1] = test system: T1, Rep nickase domain of Muscovy duck circovirus
T1 sequence (residues 1-111 of Rep, tag left off): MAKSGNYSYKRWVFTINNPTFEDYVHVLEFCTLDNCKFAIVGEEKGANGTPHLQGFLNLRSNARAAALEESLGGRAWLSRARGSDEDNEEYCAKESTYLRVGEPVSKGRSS
Procedure: (§1)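 A pool of 90-nt single-stranded DNAs with seven random bases just before the constant AC of the nick site (name = the seven bases) was cut by 3 µM recombinant His6-SUMO-tagged Rep nickase domain (300 nM DNA, 50 mM HEPES pH 8.0, 50 mM NaCl, 1 mM MnCl2, 1 h, 37 °C, three replicates). Uncut DNA was amplified and sequenced.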

[2] = test system: T2, Rep nickase domain of banana bunchy top virus
T2 sequence (residues 1-94 of Rep, tag left off): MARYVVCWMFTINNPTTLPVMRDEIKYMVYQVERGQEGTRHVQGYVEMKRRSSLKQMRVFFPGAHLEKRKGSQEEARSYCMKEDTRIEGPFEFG
Procedure: as §1

[3] = test system: T3, Rep nickase domain of cabbage leaf curl virus
T3 sequence (residues 1-116 of Rep, tag left off): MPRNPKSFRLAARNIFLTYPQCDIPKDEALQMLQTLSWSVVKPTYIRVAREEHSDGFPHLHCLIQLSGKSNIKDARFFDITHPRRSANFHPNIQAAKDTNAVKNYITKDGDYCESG
Procedure: as §1

[4] = test system: T4, Rep nickase domain of chickpea chlorotic dwarf virus
T4 sequence (residues 1-124 of Rep, tag left off): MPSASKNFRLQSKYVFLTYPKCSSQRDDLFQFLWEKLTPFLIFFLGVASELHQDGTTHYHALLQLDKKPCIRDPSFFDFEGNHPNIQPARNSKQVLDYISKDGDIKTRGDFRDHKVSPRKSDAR
Procedure: as §1

[5] = test system: T5, Rep nickase domain of faba bean necrotic yellows virus
T5 sequence (residues 1-98 of Rep, tag left off): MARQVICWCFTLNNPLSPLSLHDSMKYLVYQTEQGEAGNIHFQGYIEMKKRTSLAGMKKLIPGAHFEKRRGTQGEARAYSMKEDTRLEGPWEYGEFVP
Procedure: as §1

[6] = test system: T6, Rep nickase domain of maize striate mosaic virus
T6 sequence (residues 1-117 of Rep, tag left off): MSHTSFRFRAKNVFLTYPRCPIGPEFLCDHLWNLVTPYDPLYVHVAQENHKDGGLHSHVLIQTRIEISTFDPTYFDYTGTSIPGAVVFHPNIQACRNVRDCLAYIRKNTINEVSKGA
Procedure: as §1

[7] = test system: T7, Rep nickase domain of porcine circovirus 2
T7 sequence (residues 2-116 of Rep, tag left off): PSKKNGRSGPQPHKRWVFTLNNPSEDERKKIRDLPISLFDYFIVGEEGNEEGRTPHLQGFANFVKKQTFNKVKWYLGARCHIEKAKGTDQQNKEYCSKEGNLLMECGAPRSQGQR
Procedure: as §1

[8] = test system: T8, Rep nickase domain of tomato golden mosaic virus
T8 sequence (residues 1-124 of Rep, tag left off): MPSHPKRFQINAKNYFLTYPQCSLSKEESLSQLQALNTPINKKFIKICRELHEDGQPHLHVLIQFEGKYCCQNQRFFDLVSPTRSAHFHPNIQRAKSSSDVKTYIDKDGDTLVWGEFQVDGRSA
Procedure: as §1

[9] = test system: T9, Rep nickase domain of tomato yellow leaf curl virus
T9 sequence (residues 1-136 of Rep, tag left off): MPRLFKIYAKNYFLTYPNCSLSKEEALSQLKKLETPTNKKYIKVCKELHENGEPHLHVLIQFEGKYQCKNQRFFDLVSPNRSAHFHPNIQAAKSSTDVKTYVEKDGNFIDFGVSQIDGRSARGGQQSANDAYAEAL
Procedure: as §1

[10] = test system: T10, Rep nickase domain of wheat dwarf virus
T10 sequence (residues 1-137 of Rep, tag left off): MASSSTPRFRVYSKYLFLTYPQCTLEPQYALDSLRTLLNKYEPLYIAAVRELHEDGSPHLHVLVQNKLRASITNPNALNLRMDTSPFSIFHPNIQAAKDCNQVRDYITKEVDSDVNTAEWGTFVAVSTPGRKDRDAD
Procedure: as §1

Sequence | uncleaved DNA left (log2) [1] | uncleaved DNA left (log2) [2] | uncleaved DNA left (log2) [3] | uncleaved DNA left (log2) [4] | uncleaved DNA left (log2) [5] | uncleaved DNA left (log2) [6] | uncleaved DNA left (log2) [7] | uncleaved DNA left (log2) [8] | uncleaved DNA left (log2) [9] | uncleaved DNA left (log2) [10]
CGCGTAC | 0.118 | -0.0709 | -0.13 | -0.322 | 0.0688 | -0.339 | -0.0399 | -0.116 | -0.095 | -0.0426
AATGCAC | 0.103 | 0.0684 | -0.22 | -0.271 | 0.0666 | -0.853 | 0.109 | 0.0649 | 0.0255 | 0.0637
TTATATA | -0.222 | 0.0191 | 0.129 | -1.23 | 0.048 | 0.0543 | -0.25 | 0.0109 | 0.0602 | 0.105
ACGAAGT | 0.0113 | 0.0136 | -0.111 | -0.344 | 0.0178 | -0.802 | -0.0291 | -0.091 | 0.0638 | -0.0136
TTTTATT | -3.52 | -3.38 | -1.02 | -3.45 | -0.38 | -0.574 | -3.81 | -0.886 | -0.0571 | -2.17
ACTTTTG | 0.0131 | 0.183 | -0.669 | -0.256 | 0.0808 | -1.02 | 0.196 | 0.00857 | 0.091 | 0.0948
GTGTTAG | 0.178 | 0.155 | -0.114 | 0.097 | -0.0232 | -0.508 | 0.0882 | 0.11 | 0.127 | 0.049
CTAGCGC | -0.0149 | -0.113 | -0.927 | -0.676 | -0.105 | -1.07 | 0.0261 | -0.245 | -0.0179 | -0.196
